# Laboratory results as given in patent US20160082079A1.
# Where “and” joins values, the source holds several entries; their conditions need not be identical. Identical values can stand only once.
# B1: FZD8-Fc variant 54F15 (Fc fusion)
# chain: ASAKELACQEITVPLCKGIGYNYTYMPNQFNHDTQDEAGLEVHQFWPLVEIQCSPDLKFFLCSMYTPICLEDYKKPLPPCRSVCERAKAGCAPLMRQYGFAWPDRMRCDRLPEQGNPDTLCMDYNRTDLTTAAP[omitted - human IgG1 Fc]
# B2: FZD8-Fc variant 54F16 (Fc fusion)
# chain: ASAKELACQEITVPLCKGIGYNYTYMPNQFNHDTQDEAGLEVHQFWPLVEIQCSPDLKFFLCSMYTPICLEDYKKPLPPCRSVCERAKAGCAPLMRQYGFAWPDRMRCDRLPEQGNPDTLCMDYNRTDL[omitted - human IgG1 Fc with C220S (EU numbers) and a few adjoining residues]
# B3: FZD8-Fc variant 54F09 (Fc fusion)
# chain: ASAKELACQEITVPLCKGIGYNYTYMPNQFNHDTQDEAGLEVHQFWPLVEIQCSPDLKFFLCSMYTPICLEDYKKPLPPCRSVCERAKAGCAPLMRQYGFAWPDRMRCDRLPEQGNPDTLCMDYNRTDLTTAAPSPP[omitted - human IgG1 Fc]
# Molecular target: Wnt3a
# Assay: cell-based or functional assay
binder,measurement,value
B1,"% Relative Activity (blocking of Wnt3a-induced TCF luciferase reporter in STF293 cells, relative to a reference standard set at 100%)",128%
B2,"% Relative Activity (blocking of Wnt3a-induced TCF luciferase reporter in STF293 cells, relative to a reference standard set at 100%)",125%
B3,"% Relative Activity (blocking of Wnt3a-induced TCF luciferase reporter in STF293 cells, relative to a reference standard set at 100%)",156% and 157%
